Among all 310,000 compounds or so, about 2,200 (0.71%) showed an effect of 50% or more. Effects have a minus sign here. This is one part of the list.
What follows are compounds tested against human ether-à-go-go-related gene (hERG) potassium channel (human, UniProt Q12809) (assay: primary screen, population patch clamp on CHO cells stably expressing hERG).
Sequence of human ether-à-go-go-related gene (hERG) potassium channel (Q12809 whole entry, looked up): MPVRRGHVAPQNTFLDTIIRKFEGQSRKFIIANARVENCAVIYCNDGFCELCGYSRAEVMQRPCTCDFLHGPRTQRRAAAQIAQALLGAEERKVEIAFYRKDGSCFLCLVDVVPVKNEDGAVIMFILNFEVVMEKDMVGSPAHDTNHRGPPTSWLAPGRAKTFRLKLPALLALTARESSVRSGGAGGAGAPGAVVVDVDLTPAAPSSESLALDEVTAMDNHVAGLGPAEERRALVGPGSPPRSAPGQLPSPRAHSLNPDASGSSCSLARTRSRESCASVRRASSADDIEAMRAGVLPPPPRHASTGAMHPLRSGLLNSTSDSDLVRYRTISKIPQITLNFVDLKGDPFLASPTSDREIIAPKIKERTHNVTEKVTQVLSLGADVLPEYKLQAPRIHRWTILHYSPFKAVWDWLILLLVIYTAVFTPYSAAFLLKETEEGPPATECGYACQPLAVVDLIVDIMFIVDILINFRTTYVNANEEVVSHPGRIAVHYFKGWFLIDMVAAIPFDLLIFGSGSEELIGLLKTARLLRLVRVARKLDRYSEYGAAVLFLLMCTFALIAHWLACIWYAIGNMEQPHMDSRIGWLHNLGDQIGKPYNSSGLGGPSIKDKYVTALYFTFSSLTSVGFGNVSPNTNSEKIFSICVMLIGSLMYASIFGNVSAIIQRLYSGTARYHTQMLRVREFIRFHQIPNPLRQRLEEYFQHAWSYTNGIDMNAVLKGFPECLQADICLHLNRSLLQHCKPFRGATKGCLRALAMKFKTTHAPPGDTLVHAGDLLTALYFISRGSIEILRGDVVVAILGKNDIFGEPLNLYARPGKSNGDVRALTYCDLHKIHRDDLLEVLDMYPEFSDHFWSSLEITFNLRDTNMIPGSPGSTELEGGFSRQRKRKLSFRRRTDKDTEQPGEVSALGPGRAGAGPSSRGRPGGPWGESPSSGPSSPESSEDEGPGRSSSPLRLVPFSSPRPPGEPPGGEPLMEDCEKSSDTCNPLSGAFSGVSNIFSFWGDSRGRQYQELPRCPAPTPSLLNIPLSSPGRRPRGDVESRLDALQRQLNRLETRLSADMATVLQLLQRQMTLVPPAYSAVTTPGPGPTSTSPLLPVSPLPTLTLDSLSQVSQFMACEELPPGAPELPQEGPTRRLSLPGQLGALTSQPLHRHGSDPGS

Row | Compound | hERG current change (%, negative = inhibition) at 1uM
1 | [O-]/C(=C(\C(=S)Nc1cccc2ccccc12)[n+]1ccccc1)c1cccs1 | 10.1%
2 | Cc1ccc(-c2nc(NC(=O)CSc3nnc(C)s3)ns2)cc1 | 10.1%
3 | C[C@]12CCC3C(CC[C@H]4CC(O)CC[C@]34C)C1CC/C2=N/O (stereo partly drawn) | 11.6%
4 | O=C(NCc1ccccc1)c1ccc(Cl)nc1 | -0.152%
5 | COc1cc(OC)c(-c2nc3cnccc3n2C)cc1OC | -2.52%
6 | CC(=O)N1CCN(C(=S)NCCc2ccccc2)CC1 | 4.54%
7 | Cc1nc2c3ccccc3[nH]c(=O)n2n1 | 0.165%
8 | CNc1nc(C)c(C(C)(C)C)s1 | 14%
9 | CCOc1cccc(-c2nnc3sc(COc4ccccc4)nn23)c1 | -4.64%
10 | CCN1CCN(CCC(=O)Nc2ccc(F)c(F)c2)CC1 | 1.1%
11 | O=C(NCc1ccccc1)c1cc(-c2cccc(O)c2)on1 | 7.37%
12 | O=C1Nc2ccccc2C1(O)Cc1ccncc1 (stereo not drawn) | 7.04%
13 | Cc1cccc(NCCC(=O)c2ccc(Br)cc2)c1 | 4.27%
14 | Cc1ccc(C(=O)C(C)OC(=O)Cc2n[nH]c(=O)c3ccccc23)cc1C (stereo not drawn) | 1.2%
15 | CCOc1ccc(S(=O)(=O)Nc2cccc(C(=O)N3CCN(c4ccccc4O)CC3)c2)cc1 | 8.62%
16 | Cc1ccc2c(Cl)cc(Cl)c(OCc3c(C)noc3C)c2n1 | 6.65%
17 | FC(F)(F)c1ccc(Cl)c(NC(=S)N/N=C/c2ccccc2C(F)(F)F)c1 | 8.26%
18 | COc1ccc(CC(=O)Nc2nnc(SCc3ccccc3)s2)cc1S(=O)(=O)N1CCOCC1 | -3.56%
19 | Cc1cccc(-n2cnc(C(=O)N3CCN(C)CC3)c2)n1 | 14.4%

Row | Compound | hERG current change (%, negative = inhibition) at 1uM
20 | CCCOc1ccc(C2c3c(oc4ccccc4c3=O)C(=O)N2CCCN2CCOCC2)cc1 (stereo not drawn) | 5.76%
21 | CN(c1ccccc1)S(=O)(=O)c1ccc(Cl)c(C(=O)NCc2ccccc2CN2CCCC2)c1 | -14.9%
22 | COc1ccc(-c2cc(C(=O)N3CCN(c4ccccc4O)CC3)c3ccccc3n2)cc1OC | -21.8%
23 | CC(C)Cn1nc(NC(=O)C2CCCO2)c2cc3ccccc3nc21 (stereo not drawn) | 1.85%
24 | COc1ccc(N2C(=O)C(CC(=O)Nc3ccc(F)cc3)N(CCc3ccc(OC)c(OC)c3)C2=O)cc1 (stereo not drawn) | 1.16%
25 | CCOc1ccccc1OCC(=O)OCc1csc(CC(=O)Nc2ccccc2C)n1 | 6.37%
26 | CCOC(=O)Cn1c(=O)oc2cc(S(=O)(=O)Nc3c(C)cc(C)cc3C)ccc21 | 3.4%
27 | O=C(COC(=O)CC1CC2CCC1C2)Nc1ccc(F)cc1 (stereo not drawn) | -9.58%
28 | CC1(C)C[C@H](O)[C@]2(CO)CC[C@]3(C)C(=CCC4[C@@]5(C)CC[C@H](O)C(C)(C)C5CC[C@]43C)[C@@H]2C1 (stereo partly drawn) | 2.57%
29 | CCC(=O)Nc1cc(C)c(NC(=O)c2ccccc2OC)cn1 | 17%
30 | COc1ccc(CNC(=S)Nc2ccccc2C)cc1 | 2.88%
31 | O=C(Nc1cccc([N+](=O)[O-])c1)C1CC(=O)N(C2CCCCC2)C1 (stereo not drawn) | -1.83%
32 | CCCn1c(C(O)c2cc(OC)c(OC)c(OC)c2)nc2ccccc21 (stereo not drawn) | 13.3%
33 | CS(=O)(=O)N(CC(=O)N1CCN(Cc2ccccc2)CC1)c1ccccc1Br | 11.5%
34 | CCOC(=O)C(C)Sc1nnc(Cc2cc(=O)[nH]c(=O)[nH]2)n1-c1cccc(OC)c1 (stereo not drawn) | 3.84%
35 | CCOC(=O)c1cccc(NC(=O)c2cc(C)nn2-c2ccccc2)c1 | 8.51%
36 | Cc1ccc2c(c1)C1CN(C)CCC1N2C(=O)c1cccc(S(=O)(=O)N2CC(C)CC(C)C2)c1.Cl (stereo not drawn) | 2.88%
37 | CC(C)c1ccc(NC(=O)c2sccc2-n2cccc2)cc1 | 14.9%
38 | O=C(Nc1ccccc1N1CCCC1)c1ccc(N2CCCC2=O)cc1 | -0.757%

Row | Compound | hERG current change (%, negative = inhibition) at 1uM
39 | CCOC(=O)c1cnc2c(cnn2C)c1NCCC(O)C(F)(F)F (stereo not drawn) | 3.08%
40 | O=C(NCc1ccccc1)C1CCCN(S(=O)(=O)c2ccc(-n3cnnn3)cc2)C1 (stereo not drawn) | 4.37%
41 | CCCc1cc(=O)[nH]c(SCC(=O)N(Cc2ccccc2)C(C)C)n1 | 9.69%
42 | Cc1ccc(O)c(CC(C)C)n1 | 10.5%
43 | COCCCNC(=O)c1ccc(CS(=O)(=O)c2ccccc2C)o1 | 13.8%
44 | CC1CCN(S(=O)(=O)c2ccc(C(=O)N3CCOCC3)cc2)CC1 | 14.7%
45 | C=CCn1c(O)c(C(CC)=Nc2cccc(C(=O)O)c2)c(=O)[nH]c1=O | 12.6%
46 | Cc1cccc(NS(=O)(=O)c2ccc(C(=O)NCCCN3CCOCC3)cc2)c1C | 4.17%
47 | CCN1C(=O)CS/C1=N\c1nccs1 | 10.7%
48 | C/C(N)=C(/C#N)C(=O)COC(=O)c1cc2c(s1)CCC(C)C2 (stereo not drawn) | 8.65%
49 | O=C(/C=C1\SC(=O)N(CC(=O)Nc2ccc(F)cc2)C1=O)Nc1ccc(Cl)cc1 | 11%
50 | O=C(CCc1ccccc1)NNC(=S)NC(=O)c1ccc(Cl)cc1 | 4.96%
51 | CCCc1ccc(S(=O)(=O)N2CCN(Cc3ccco3)CC2)cc1 | 13.7%
52 | CCOCCCNC(=O)CS(=O)(=O)Cc1nc(-c2cccc(OC)c2)oc1C | 2.81%
53 | CN(C)C(=O)NC1CCCCCCCCCCC1 | -0.468%
54 | COc1ccccc1OCCSc1nc(C)c(Cc2ccccc2)c(=O)[nH]1 | 13.6%
55 | Cc1ccc(-c2csc3ncnc(-n4cnc5ccccc54)c23)cc1 | 2.25%
56 | CC1(C)Cc2c(sc(/N=C/N3CCCC3)c2C#N)C(C)(C)N1 | -4.13%
57 | CCOC(=O)C1C(C(=O)OCC)C1(c1ccccc1)c1ccccc1 (stereo not drawn) | 1.05%
